In PubChem BioAssay AID1645882 (National Center for Advancing Translational Sciences (NCATS), 2021):
Hit rate of the full screen: of about 16,000 compounds, about 120 (0.75%) were called active. Roughly 4% stayed inconclusive and do not appear here. Calls come from the whole dose curve; as a rule, active = well fitted inhibition curve with a large enough effect; inconclusive = small, poorly fitted or top-dose-only effect; inactive = no such curve, though single readings can be large or run the other way. The list shows a part of the results.

target: Rap guanine nucleotide exchange factor 3 (Homo sapiens) (UniProt O95398); assay: Validation qHTS for antagonist of cAMP-regulated guanine nucleotide exchange factor 3 (EPAC1); settings: EPAC1 Rap1B-BODIPY-GDP exchange, fluorescence; series mostly up to 150 µM; activity change, negative = inhibition: at the top concentration;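 note: plate controls were DMSO for no effect and ATA control for full effect; nearly all actives have a fitted effect of over 75% in size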
Procedure, shortened: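 Nucleotide exchange followed as fluorescence loss when BODIPY-GDP leaves Rap1B (480 nm excitation, 540 nm emission), read at 5 min intervals over 30 min. Reaction: 100 nM EPAC1, 250 nM RAP1B-BODIPY-GDP, 50 uM GDP; ATA and DMSO define normalization.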

UniProt O95398, sequence (O95398 whole entry, looked up): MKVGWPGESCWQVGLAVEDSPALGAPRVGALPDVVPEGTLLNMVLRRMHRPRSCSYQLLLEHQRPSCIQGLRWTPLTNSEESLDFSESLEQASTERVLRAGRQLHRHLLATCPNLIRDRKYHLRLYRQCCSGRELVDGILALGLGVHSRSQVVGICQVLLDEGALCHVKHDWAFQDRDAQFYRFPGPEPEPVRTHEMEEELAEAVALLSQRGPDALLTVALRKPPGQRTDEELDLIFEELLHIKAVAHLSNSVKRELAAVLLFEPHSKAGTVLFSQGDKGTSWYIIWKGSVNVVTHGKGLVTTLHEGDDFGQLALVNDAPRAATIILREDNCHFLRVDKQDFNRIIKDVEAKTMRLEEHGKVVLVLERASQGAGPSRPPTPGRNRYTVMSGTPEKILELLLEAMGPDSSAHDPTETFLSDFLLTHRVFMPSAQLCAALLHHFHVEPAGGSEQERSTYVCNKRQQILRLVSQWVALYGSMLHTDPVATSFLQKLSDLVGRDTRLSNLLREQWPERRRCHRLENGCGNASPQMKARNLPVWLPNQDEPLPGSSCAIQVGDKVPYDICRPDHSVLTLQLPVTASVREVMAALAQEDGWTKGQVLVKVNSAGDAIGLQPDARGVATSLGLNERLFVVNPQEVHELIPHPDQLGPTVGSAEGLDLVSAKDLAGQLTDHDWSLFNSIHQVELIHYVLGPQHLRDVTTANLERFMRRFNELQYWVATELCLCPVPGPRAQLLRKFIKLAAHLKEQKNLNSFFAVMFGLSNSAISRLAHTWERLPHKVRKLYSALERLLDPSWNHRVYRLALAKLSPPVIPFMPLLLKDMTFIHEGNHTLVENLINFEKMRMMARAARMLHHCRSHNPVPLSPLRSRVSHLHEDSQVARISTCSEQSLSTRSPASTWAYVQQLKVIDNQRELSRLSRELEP

Activity change, negative = inhibition, inactive:
CCNc1ncc2nc(-c3cn(C)c4ccccc34)c(=O)n(C[C@H]3CCCO3)c2n1 12.1%, O=c1cnc2cnc(Oc3cccc(Cl)c3)nc2n1C1CC1 6.23%, Cc1ccccc1C1(CC(=O)N2CCCC(C)C2)CC(=O)N(Cc2cccnc2)C1=O (centres undefined) 8.32%, N#Cc1ccccc1-c1ccc2ncnc(N3CCNCC3)c2c1 1.58%, O=C(O)c1cccc(/C=C2/C[C@@H]3[C@@H](/C=C/[C@@H](O)C4CCCCC4)[C@H](O)C[C@@H]3O2)c1 9.6%, C=CC[C@H](N)C(=O)O -12.7% [at 75.8 µM], CC(C)NC(=O)N1CCC2(CC1)CCN(C(=O)c1cnccn1)CC2 1.66%, Brc1ccc([C@H]2CN3CCSC3=N2)cc1 -6.9% [at 75.8 µM], O=S(=O)(c1ccccc1)N1CCC2(CCN(Cc3ccccc3)CC2)CC1 18.9%, Cc1ccc(S[C@@H](CCN2CC[C@H](C)CCC2=O)c2ccccc2)cc1 -12.4%, COc1ccc(NC(=O)N2CC[C@@]3(CCCNC3)C2)cc1 26.1%, O=C(/C=C/c1ccc(OCc2ccccc2)cc1)c1cccs1 9.11%, COc1ccc(C(=O)NCCN2Cc3cc(C)ccc3OC(C)C2)c(OC)n1 (centres undefined) 6.47%, CC1NC(C(=O)O)Cc2c1[nH]c1ccccc21 (centres undefined) 2.03%, CC(C)CC(NP(=O)(O)O[C@@H]1O[C@@H](C)[C@H](O)[C@@H](O)[C@H]1O)C(=O)NC(Cc1c[nH]c2ccccc12)C(=O)O (some centres undefined) 8.85% [at 75.8 µM], Cc1cccc(CNc2ncncc2-c2ccccc2C)c1 2.69%, CC(C)C(NS(C)(=O)=O)c1nnc2n1CCN(Cc1ccnc3ccccc13)CC2 (centres undefined) 10.9%, CCCCCCCCCCCCCCCC(=O)OC(CC(=O)O)C[N+](C)(C)C (centres undefined), CCCCCCCCCCCCCCCC(=O)NCCO, COc1cc([C@@H]2c3cc4c(cc3C(O[C@@H]3O[C@@H]5COC(c6cccs6)O[C@H]5[C@H](O)[C@H]3O)C3COC(=O)[C@@H]32)OCO4)cc(OC)c1O (some centres undefined) -8.58%, Cc1cc(C(=O)Nc2ccccc2-c2nc(CNC(=O)c3ccc(F)cc3F)c(C)o2)c(C)o1 7.32%, CN(C)C(=O)c1ccc(-c2ccc3ncnc(Nc4ccccc4)c3c2)cc1 -0.569%, CCn1c(-c2ccccc2F)nc2cc(NC(C)=O)cc(C(=O)N(C)Cc3cn(C)nc3C)c21 -1.07%, O=C1CC(c2ccc(O[C@@H]3OC(CO)[C@@H](O)C(O)C3O)cc2)Oc2cc(O)ccc21 (some centres undefined) 4.19%, CN1CCN(C2=Nc3cc(Cl)ccc3Nc3ccccc32)CC1, CC(C)(S)[C@@H](N)C(=O)O 20.4%, C=C1CC[C@@H]2O[C@@]2(C)CC[C@H]2[C@H]1CC2(C)C -11.4%, CC1=CC(=O)C2=C(C)C[C@H](OC(=O)Cc3ccccc3)C3[C@H](OC(=O)[C@H]3C)C12 (some centres undefined) 5.33%, CN(Cc1cccc2ncccc12)C(=O)c1cnn(-c2nccc(-c3ccccc3F)n2)c1C1CC1 -13%, COc1ccc(Oc2ncc3nc(-c4ccc(F)cc4)c(=O)n(C[C@H]4CCCO4)c3n2)cc1 -3.14%, COc1ccccc1-c1cc(NCc2cccnc2)ncn1 19.2%, Cc1cccc(C(=O)O[C@H]2[C@H](Cc3ccccc3)NS(=O)(=O)[C@H]3CC4C=C[C@]23O4)c1 6.2%, Cc1cc(C(=O)NNCc2ccccc2)no1 0.128% [at 75.8 µM], COc1ccc2c(c1)CC[C@@H]1[C@@H]2CC[C@]2(C)[C@@H](NCCCCCCN3C(=O)C=CC3=O)CC[C@@H]12 4.59% [at 201 µM], Cc1ccccc1-c1cc(Nc2ccccc2)ncn1 -4.33%, CC(C)c1c(C(=O)NCC2(N3CCOCC3)CCCC2)cnn1-c1nccc(-c2cccs2)n1 4.46%, COc1ccc(OC)c(/C=C/c2cc3ccccc3cn2)c1 3.32%, COC(=O)c1cccc(C(=O)NCc2nc(-c3ccccc3NC(C)=O)oc2C)c1 6.06%, COc1ccc(-c2ccc(=N)n(CCCC(=O)O)n2)cc1, Cn1ccc(C(=O)NCC2CCC3(CCN(Cc4cc(F)cc(F)c4)CC3)O2)n1 (centres undefined) 7.03%, CN(C)c1ncc2nc(-c3ccccc3)c(=O)n(Cc3cccs3)c2n1 20.9%, Cc1ccc(C(=O)NCCc2nnc3n2CCN(Cc2ccnc4ccccc24)CC3)c(C)c1 17.4%, O=C(C[C@H]1C(=O)N(c2ccc(F)c(F)c2)C[C@@H]1Cc1ccccc1)Nc1ccccc1 -0.362%, CC1(C)S[C@@H]2[C@H](NC(=O)C(C(=O)Oc3ccc4c(c3)CCC4)c3ccccc3)C(=O)N2[C@H]1C(=O)O (some centres undefined) 15.1%, CSc1ccc(C(=O)c2[nH]c(=O)[nH]c2C)cc1, COc1ccccc1CNc1nc(-c2cccnc2)nc2ccccc12 -15.8%, S=C(Nc1ccccc1)Nc1nccs1 4.33% [at 75.8 µM], Cc1c(C(=O)NCc2ccc3c(c2)OCO3)cnn1-c1ncc2c(n1)-c1ccccc1CC2 -4.33%, Cc1ccnc2c(Cl)c(Cl)ccc12 8.33%, CCCC[C@H]1COCCS(=O)(=O)N1Cc1ccccc1F -4.51%, COc1cc(C/C=C/c2ccccc2)c(OC)cc1O 7.69%, O=C1O[C@H](CO)[C@@H](O)[C@H](O)[C@H]1O 23.2%, COc1ccc2c(c1)-c1nc(-n3ncc(C(=O)NCc4cccc(C)n4)c3C3CC3)ncc1CC2 17.5%, COc1ccc(-c2nc3cnc(N(C)C)nc3n(C3CC3)c2=O)cc1 4.93%, COCCN1CCN(C(=O)c2sc3ncnc(NCC4CCCO4)c3c2C)CC1 (centres undefined) -4.02%, Oc1cn2c(n1)Nc1ccc(Cl)c(Cl)c1C2, Cc1cc(C)n(-c2cccc(C(=O)NCC3Cc4cccc(-c5ccccn5)c4O3)c2)n1 (centres undefined) -18.2%, Nc1nc2c(ncn2[C@@H]2O[C@H](COP(=O)(O)OP(=O)(O)O)[C@@H](O)[C@H]2O)c(=O)[nH]1 -0.587%, CN(C)C(=O)c1ccc(-c2nc(NCc3cccs3)c3ccccc3n2)cc1 17.3%, COc1ccc2c(c1OC)OCC(c1ccc(OC)c(OC)c1OC)C2 (centres undefined) 8.73%, O=C(CN1Cc2ccccc2OC(c2ccccc2F)C1)NC(c1ccccn1)C(F)(F)F (centres undefined) -16.7%, Cc1ccc2c(c1)CN(CCNC(=O)c1ccc3nc(C)[nH]c3c1)CC(C)O2 (centres undefined) 1.39%, CC(=O)Oc1c(-c2ccccc2)oc2c(CC=C(C)C)c3c(c(OC(C)=O)c2c1=O)C=CC(C)(C)O3 6.65%, Cc1cnc(CNc2ccnc(-c3ccccc3CN(C)C)n2)cn1 9.74%, CC(N)(C(=O)O)c1ccc(P(=O)(O)O)cc1 (centres undefined) -8.59%, NCC1CCC(C(=O)O)CC1 (centres undefined), CC(C)(C)n1nc(-c2ccc(Cl)cc2)c2c(N)ncnc21 -3.11%, COC(=O)[C@@H](Cc1ccccc1)N(Cc1ccccc1)S(=O)(=O)N(Cc1ccccc1)[C@H](Cc1ccccc1)C(=O)OC 11.6%, OC[C@@H](O)C(O)[C@H](O)CO 10.2%, Cc1ccc(/C(=C\CN2CCCC2)c2cccc(/C=C/C(=O)O)n2)cc1 27.9%, Cn1c(O)c(N=NC(N)=S)c2ccccc21 14.4%, Cc1ccccc1-c1cccc(CN2CCc3nnc(C(C)NC(=O)c4cccnc4)n3CC2)c1 (centres undefined) 13.4%, Cc1ccccc1-c1cncnc1NCCN1CCOCC1 13.7%, COc1ccc(/C=N/NC(=O)c2ccncc2)c(C(=O)O)c1OC 12.8%, COc1ccc(/C=C/c2ccccn2)cc1 13%, Cc1ccccc1-c1nc(NCc2cccnc2)c2ccccc2n1 14.3%, O=C(c1cc(-c2ccccc2)on1)N1CCOc2ccc(CN3CCOCC3)cc2C1 13.4%, Cc1cccc([C@@H]2CN(C)CCc3c2cc(O)c(O)c3Cl)c1 7.96%, N#CCCn1c(=O)c(-c2cccs2)nc2cnc(Oc3cccc(Cl)c3)nc21 0.237%, CC(C)NC(=O)c1cn([C@H]2CC[C@@H](NC(=O)/C=C/c3cccs3)CC2)nn1 -4.66%, c1nc(NC2CCNCC2)c2cc(-c3ccc4c(c3)OCO4)ccc2n1 22.3%, O=C(Nc1ccc(Cl)c(C(F)(F)F)c1)[C@@H]1CC=C[C@@H]2CCN(Cc3ccc(Cl)c(Cl)c3)C(=O)[C@@H]21 -0.47%, COc1cc2ncc(-c3ccccc3)nc2cc1OC, Cc1cn2cc(CNC(=O)CN3Cc4ccccc4OC(c4ccccc4F)C3)nc2s1 (centres undefined) 0.356%, OCCN1CCN(Cc2ccc3c(c2)CN(Cc2cccc4ncccc24)CCO3)CC1 8.59%, COc1cccc(-c2ccc3ncnc(NCc4ccc(OC)cc4OC)c3c2)c1 -7.77%, COc1ccc(C(=O)NCC2Cc3cc(C)cc(-c4nc5ccccc5s4)c3O2)c(OC)c1OC (centres undefined) 8.31%, Cc1cnc(C)c(-c2cccc3c2OC(CNC(=O)C[C@@H]2C[C@@H](C)NC(=S)N2)C3)n1 (some centres undefined) 19.1%, COc1ccc(CCNCC(O)COc2cccc(C)c2)cc1OC (centres undefined) 22.6%, O=C(O)C1CCN(c2ncnc3ccc(-c4ccccc4C(F)(F)F)cc23)CC1 28.3%, COc1cccc(O)c1CN1CCC2(CC1)c1ccccc1[C@@H](NC(=O)c1ccsc1)[C@@H]2OC 6.54%, COC(=O)N1CCC2(CCCN(Cc3nccs3)C2)CC1 -7.1%, CN1CCCN=C1COC(=O)C(O)(c1ccccc1)C1CCCCC1 (centres undefined) 9.28%, CC(C)(Oc1ccc(Cl)cc1)C(=O)O, Cc1cnc(CNc2ncnc3ccc(-c4ccccc4C(F)(F)F)cc23)cn1 -1.31%, [O-][n+]1ccccc1SSc1cccc[n+]1[O-] 14.7%, Cc1nc2cnc(OCc3ccccc3)nc2n(CCc2ccccc2)c1=O -9.15%, CC(=O)N[C@@H](CCC(N)=O)C(=O)O 18%, COc1ccc(-c2c(O)c3c(OC)c4c(cc3oc2=O)OC(C)(C)C=C4)cc1 -3.79%, CCOC(=O)C[C@H]1c2cc(F)ccc2S(=O)(=O)N1C(C)(C)C -2.76%, Cc1ncc2c(c1CNC(=O)c1ccc3c(c1)OCO3)CCN(C(=O)C1Cc3ccccc3O1)C2 (centres undefined) 20.6%, CC(=O)NO 3.55%, CC(N)(Cc1ccc(O)c(O)c1)C(=O)O (centres undefined) 0.787% [at 75.8 µM], Cc1ccccc1-c1cncnc1NC1CCNCC1 -5.07%
